# Assay results: PubChem BioAssay AID1508642 (National Center for Advancing Translational Sciences (NCATS), 2021)
# In all, about 43,000 compounds went through this assay and about 200 (0.47%) were called active. Roughly 12% stayed inconclusive and do not appear here. Calls follow the shape of the dose curve; as a rule, active = well fitted cell-killing curve with a large enough effect; inconclusive = small, poorly fitted or top-dose-only effect, or effect the other way; inactive = flat fitted curve, though single readings scatter. This is one part of the list.
# Experiment: Cell viability qHTS assay in S16 Pmp22-F2sN cells; also: nearly all actives have a fitted effect of over 65% in size
# Details: S16 Pmp22-F2sN Schwann cells (luciferase reporters placed in the Pmp22 gene) viability, CellTiter-Glo, 24 h; series mostly up to 57.5 µM; activity change, negative = cytotoxicity: at the top concentration
# Outline: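 CellTiter-Glo counter-screen, qHTS, 1536-well. Cells: S16(c9) Pmp22-F2sN, 500-1,000/well in DMEM + 10% FBS. Cpd 23 nL pin transfer, 24 h, 37C/5% CO2. Read: luminescence, CCD imager.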
# % is scaled to controls: 0 for no effect and ±100 for the full control effect; potency is read from the fitted curve at half-maximal effect.
Structure (SMILES),"activity change, negative = cytotoxicity",Potency
Cc1ccccc1C(=O)NCC(c1cccnc1)N1CCc2ccccc21 (configuration not stated),inactive: -18.5%,
CC(C)CN(CCCNC(=O)CN1C(=O)COc2ccc(S(=O)(=O)N3CCCCCC3)cc21)CC(C)C,inactive: 2.21%,
O=C1CC(=O)Nc2cc(S(=O)(=O)N3CCOc4ccccc43)ccc2N1,inactive: 3.66%,
COc1cc(NC(=O)CSc2nc(C)c(C(=O)Nc3ccccc3)c(-c3ccc(OC)c(OC)c3)c2C#N)c(OC)cc1Cl,inactive: 5.45%,
COc1ccc(N2CC3=C(C2=O)C(c2ccc(Br)cc2)NC(=O)N3C)cc1 (configuration not stated),inactive: 11.1%,
COc1cccc(N2CCN(C(=O)c3c(C)oc4ncnc(N5CCCCC5)c34)CC2)c1,inactive: 4.58%,
Cc1ccc(-c2nnc(Nc3ccc(O)cc3)c3ccccc23)cc1S(=O)(=O)NCc1nc2ccccc2[nH]1,inactive: 0.0906%,
Nc1c(C(=O)Nc2cccc(Cl)c2)sc2nc3c(cc12)CN(Cc1ccccc1)CC3,inactive: -6.3%,
CCOCCCn1c(=N)c(S(=O)(=O)c2ccc(C)cc2)cc2c(=O)n3ccccc3nc21,inactive: -30%,
CCOC(=O)c1c(NC(=O)C(C)Sc2cn(CCNC(=O)c3ccc(OC)c(OC)c3)c3ccccc23)sc2c1CCC2 (configuration not stated),inactive: 1.87%,
CC(C)NC(=O)c1ccc(Cn2c(=O)c3cccn3c3cccnc32)cc1,inactive: -0.207%,
COc1ccc(CC(=O)NC2CC(=O)N(c3ccc4c(c3)OCCO4)C2)cc1 (configuration not stated),inactive: 12.9%,
CCOC(=O)c1c(C)oc2nc(C)nc(NCc3ccc(C)cc3)c12,inactive: 9.24%,
CCN1CCN(Cc2c(O)ccc3c(=O)c(Oc4ccccc4Cl)c(C(F)(F)F)oc23)CC1,inactive: -3.5%,
COCCCNc1nc2c(-c3ccccc3)nnn2c2ccccc12,inactive: 18%,
O=C(CSc1nncn2c1cc1sccc12)Nc1ccccc1C(F)(F)F,inactive: 1.26%,
COc1ccc2nc3sc(C(=O)Nc4cc(Cl)c(OC)cc4OC)cc3cc2c1,inactive: 2.77%,
CC1=C(c2ccc(C)cc2)S(=O)(=O)N=C1N1CCN(c2ccccc2)CC1,inactive: -2.5%,
Cc1ccc2nc(-c3ccncc3)c(Nc3ccccc3C)n2c1,inactive: -0.651%,
Cc1ccc(CSC2=Nc3ccccc3C3=NC(CC(=O)NC4CCCCC4)C(=O)N23)c(C)c1 (configuration not stated),inactive: 0.995%,
Cc1cc(C)cc(NC(=O)CN2C(=O)COc3ccc(S(=O)(=O)Nc4ccccc4)cc32)c1,inactive: -0.675%,
Cc1cn(C)c(CC(=O)NCc2ccc(F)cc2)c1C(=O)O,inactive: -1.35%,
COc1ccc2c(c1)c1c(c(=O)n(-c3cccc(C)c3)c(=O)n1CC(=O)Nc1c(C)cc(C)cc1C)n2C,inactive: 1.66%,

Structure (SMILES),"activity change, negative = cytotoxicity",Potency
CCc1cccc(NC(=O)CNS(=O)(=O)c2ccc3nc(C)sc3c2)c1,inactive: -18.3%,
CCOC(=O)c1ccccc1NC(=O)CSc1nc2ncccc2o1,inactive: 8.39%,
CNS(=O)(=O)c1cn(CC(=O)N2CCN(c3ccc(OC)cc3)CC2)cc1S(=O)(=O)NC,inactive: 6.18%,
Cc1ccc(NS(=O)(=O)c2ccc3c4c(cccc24)C(=O)N3)c(C)c1,inactive: 2.7%,
CN(Cc1ccccc1)S(=O)(=O)c1ccc(F)c(C(=O)Nc2ccccc2C(F)(F)F)c1,inactive: -0.826%,
Cc1ccc(C(NC(=O)Cc2cccs2)C(=O)Nc2ccc(C(C)C)cc2)cc1 (configuration not stated),inactive: -2.45%,
Cc1cccc(-c2nc3c4ccccc4nc(NCc4ccccc4Cl)n3n2)c1,inactive: -0.822%,
Cc1cc(Nc2cccc(C(F)(F)F)c2)ncn1,inactive: 0.458%,
Cc1c(C(=O)OC2CCCC2)[nH]c2c1C(=O)CC(c1ccc(C(C)(C)C)cc1)C2 (configuration not stated),inactive: 13%,
CC(C)(C)C1CCc2c(sc(NC(=O)c3cccc(Cl)c3)c2C(N)=O)C1 (configuration not stated),inactive: 1.81%,
COc1cccc(CNC(=O)CN2C(=O)CSc3ccc(S(=O)(=O)N(C)C)cc32)c1,inactive: 4.9%,
Cc1ccc(-c2nc3sccn3c2Nc2ccccc2C)cc1,inactive: -3.21%,
CC1CCN(C(=O)c2cnn(-c3ccc(Cl)cc3)c2C2CCN(C(=O)OC(C)(C)C)CC2)CC1,inactive: 7.97%,
Cc1cccc(N2CCN(C(=O)c3nn(C)c4c3CSc3ccccc3-4)CC2C)c1 (configuration not stated),inactive: 18.7%,
CSCCC(NS(=O)(=O)c1ccc2c(c1)oc(=O)n2C)C(=O)N1CCN(c2cc(Cl)ccc2C)CC1 (configuration not stated),inactive: -5.16%,
CCC(=O)Oc1c(Sc2ccc(Cl)cc2)c(C)nn1C(C)(C)C,inactive: -2.04%,
COc1ccc(NC(=O)CSc2oc(-c3ccc(C)cc3)nc2S(=O)(=O)c2ccc(C)cc2)c(OC)c1,inactive: 0.0348%,
CCN(CCCNC(=O)c1cc2cc3cc(OC)ccc3nc2s1)c1cccc(C)c1,inactive: 4.69%,
COc1ccc(-c2nn(C)c3sc(C(=O)N4CCN(c5ccccc5F)CC4)cc23)cc1OC,inactive: -0.852%,
Cc1ccccc1OCCSc1nc(C)c(Cc2ccccc2)c(=O)[nH]1,inactive: 14.3%,
Cc1cccc2c1-c1sc(C(=O)NCCc3ccc(Cl)cc3)cc1CO2,,active: 31.6 µM
Cc1ccc(-c2[nH]c3ccccc3c2SCCNC(=O)c2ccc(S(=O)(=O)N3CCOCC3)cc2)cc1,inactive: -8.14%,
COc1ccc(NC(=O)c2c(N)c(C(=O)c3ccc(C)cc3)n3ccccc23)cc1OC,inactive: 18.8%,

Structure (SMILES),"activity change, negative = cytotoxicity",Potency
Cc1ccc(C)c(CN2C(=O)c3ccccc3Sc3ccc(C(=O)NCc4cccs4)cc32)c1,inactive: -8.66%,
O=C(CCc1ccccc1)NCCc1csc(-c2cccc(F)c2)n1,inactive: 5.42%,
Cc1ccc(C)c(NC(=O)C2CCN(c3nn4c(=O)cc(C)nc4s3)CC2)c1,inactive: 25.1%,
CCN1CCN(Cc2nc3cc(NC(=O)c4ccccc4[N+](=O)[O-])ccc3n2CC)CC1,inactive: -1.57%,
O=C(Nc1c(C(=O)N2CCC(N3CCCCC3)CC2)oc2ccccc12)c1c(F)cccc1F,inactive: -0.578%,
Cn1cc(S(=O)(=O)c2ccccc2)c(=O)c2cc(F)c(N3CCN(c4ccc(F)cc4)CC3)cc21,inactive: -1.08%,
Cc1ccc(-c2nnc(Nc3ccc(Cl)cc3)c3ccccc23)cc1S(=O)(=O)N1CCOCC1,inactive: -22.7%,
CN(C)S(=O)(=O)c1ccc2c(c1)N(CC(=O)N1CCCCC1)CCS2,inactive: 28.2%,
Cc1ccc(-n2ncc3c(Nc4cccc(C)c4)ncnc32)cc1,inactive: -1%,
COc1cccc(-n2c(SCC(=O)N3CCCCC3)nc3c([nH]c4ccccc43)c2=O)c1,inactive: 7.73%,
COc1ccc(CNC(=O)CCc2nc3cccnc3n2Cc2ccccc2)cc1,inactive: -13.9%,
CCOc1ccc(CCNC(=O)C(C)n2nc(C)n3c(cc4occc43)c2=O)cc1OCC (configuration not stated),inactive: -1.19%,
Cc1ccc(Cl)cc1N1CCN(C(=O)c2cn(C)c3ccc(S(=O)(=O)N(C)C4CCCCC4)cc3c2=O)CC1,inactive: 6.16%,
CC(=O)Nc1ccc(NC(=O)C(Cc2ccccc2)N2Cc3ccccc3C2=O)cc1 (configuration not stated),inactive: -0.64%,
Cc1cccc(N2CCN(C(=O)c3c(C)oc4nc(C)nc(N5CCCC5)c34)CC2C)c1 (configuration not stated),inactive: 1.85%,
Cc1ccc(NC(=O)Cn2c(=O)n(CCC(=O)NCCc3ccccc3)c(=O)c3ccccc32)cc1,inactive: 18.9%,
CCc1ccc(OCC(=O)N(Cc2ccco2)Cc2ccco2)cc1,inactive: -20.1%,
COc1ccc(NC(=O)c2cc3c([nH]c2=O)CC(c2ccccc2)CC3=O)cc1 (configuration not stated),inactive: -3.5%,
CCCOc1ccc(OC(=O)c2c(-c3ccccc3Cl)noc2C)cc1,inactive: -21.6%,
COc1ccc(NC(=O)Cn2c(=O)n(-c3ccc(CC(=O)NCC4CCCO4)cc3)c(=O)c3ccccc32)c(OC)c1 (configuration not stated),inactive: 29.9%,
COc1ccc(NC(=O)c2ccc3c(c2)c(C)c(C)n3Cc2ccc(F)cc2)c(OC)c1,inactive: -12.9%,
COc1ccc(C2=Nn3c(nc4sc(C(=O)Nc5cccc(C)c5)c(C)c4c3=O)SC2)cc1,inactive: 0.202%,
COc1cccc(CN2C(=O)c3ccccc3Sc3ccc(C(=O)NCCc4ccc(Cl)cc4)cc32)c1,inactive: -4.21%,

Structure (SMILES),"activity change, negative = cytotoxicity",Potency
COc1ccc(-c2nn3c(-c4ccc(C)cc4)nnc3c3ccccc23)cc1,inactive: 8.21%,
Cc1cccc(NCc2nnc3n2CCCCC3)c1C,inactive: 8.27%,
CN(C(=O)c1ccc2c(c1)N(Cc1ccccc1F)C(=O)c1ccccc1S2)C1CCCCC1,inactive: -11.7%,
COc1ccccc1N1CCN(c2nc3ccc(C)cc3nc2-n2nc(C)cc2C)CC1,inactive: -0.805%,
CCOC(=O)c1c(C)n(-c2ccccc2)c2ccc(OC(=O)c3ccc(OCC)c(OCC)c3)cc12,inactive: -10.6%,
Cc1cccc(-c2noc(-c3ccc(NCC4CCCO4)c([N+](=O)[O-])c3)n2)c1 (configuration not stated),inactive: 3.51%,
COc1ccccc1NC(=O)CCn1nc(-c2ccccc2)c2ccccc2c1=O,inactive: -21.9%,
O=C(C1CCN(c2nc3ccccc3[nH]2)CC1)N1CCN(c2ccccc2)CC1,inactive: 10.1%,
Cc1cc(C)cc(OCc2cc(=O)n3cc(C)sc3n2)c1,inactive: 14.3%,
CCn1c(SCC(=O)c2ccc([N+](=O)[O-])cc2)nnc1-c1ccc(Cl)cc1,inactive: 23%,
CCOC(=O)c1scc(-c2ccc(C)cc2)c1S(=O)(=O)Nc1cc(Cl)ccc1OC,inactive: 7.34%,
COc1cccc(CNC(=O)Cn2cc3c(n2)-c2c(oc(C(=O)N4CCCC4)c2C)CC3)c1,inactive: 0.529%,
CCc1ccc(NC(=O)Cn2ncc3c4ccccc4n(C)c3c2=O)cc1,inactive: 4.18%,
O=C(CC1N=C2c3ccccc3N=C(SCc3ccc(F)cc3)N2C1=O)NCc1cccs1 (configuration not stated),inactive: 4.38%,
CCN(CC)C(=O)c1sc2c(c1C)c(=O)n(-c1ccccc1)c(=O)n2Cc1cc(=O)n2ccccc2n1,inactive: -1.46%,
Clc1cccc(-c2csc(-c3nc(-c4ccc(Br)s4)cs3)n2)c1,inactive: 2.78%,
COC(=O)Cn1c(CN2CCN(c3ccc(OC)cc3)CC2)nc2c1c(=O)[nH]c(=O)n2C,inactive: 3.59%,
CCOc1ccc(NC(=O)c2cc(S(=O)(=O)NC3CCCC3)ccc2F)cc1,inactive: 3.92%,
CCOC(=O)c1c(S(=O)(=O)NCC(=O)Nc2cccc(CC)c2)c(C)n(C)c1C,inactive: 0.207%,
CCc1ccc(NC(=O)CSc2nc(-c3ccccc3)c(C#N)c(=O)[nH]2)cc1,inactive: 0.971%,
CCCCn1cc(S(=O)(=O)c2ccc(OC)cc2)c(=O)c2cc(F)c(F)cc21,inactive: -15.2%,
CCOc1ccc(CNC(=O)C2CCCN(S(=O)(=O)c3ccc4c(c3)CCCC(=O)N4)C2)cc1 (configuration not stated),inactive: -3.61%,
Cc1cccc(-c2nc(SCC(=O)Nc3cccc(C(F)(F)F)c3)n3[nH]c(=O)cc3n2)c1,inactive: -19.4%,
